# In PubChem BioAssay (Tox21):
# The inconclusive results got no clear call from the source; some entries with a clear call stand among them for comparison. For some assays here: A potency beside an inconclusive call is a rough fit, not a confirmed value. A structure can be active in one record and inactive in another. Calls of active or inactive are those of the source. The call rests on the fitted dose curve; in most records, active means well fitted curve in the direction sought with a large enough effect in the repeat runs; inconclusive means weak or mixed curves; inactive means no such curve, though single readings can be large; an effect the other way counts as inactive or inconclusive.
# Columns and labels:
# [1] = Human pregnane X receptor (PXR) small molecule agonists, qHTS cell viability counter screen (AID 1346977); further: nearly all actives have a fitted effect of over 50% in size; further: potency means the concentration at half of the fitted maximal effect
# Outline: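 Same-well viability read: CellTiter-Fluor added after 23 hr compound exposure, fluorescence measured 1 hr later. Cells were PXR-Luc HepG2 seeded at 2,000/well in 5% charcoal-stripped FBS medium, rested 5 hr before dosing at 37 C.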
# [2] = biological target: Cytochrome P450 2C19 (Homo sapiens) (UniProt P33261); test: Cytochrome P450 Family 2 Subfamily C Member 19 (CYP2C19) small molecule antagonists: luciferase reporter qHTS assay (AID 1671197); further: potency means the concentration at half of the fitted maximal effect; nearly all actives have a fitted effect of over 65% in size
# Chain of UniProt P33261 (P33261 whole entry, looked up): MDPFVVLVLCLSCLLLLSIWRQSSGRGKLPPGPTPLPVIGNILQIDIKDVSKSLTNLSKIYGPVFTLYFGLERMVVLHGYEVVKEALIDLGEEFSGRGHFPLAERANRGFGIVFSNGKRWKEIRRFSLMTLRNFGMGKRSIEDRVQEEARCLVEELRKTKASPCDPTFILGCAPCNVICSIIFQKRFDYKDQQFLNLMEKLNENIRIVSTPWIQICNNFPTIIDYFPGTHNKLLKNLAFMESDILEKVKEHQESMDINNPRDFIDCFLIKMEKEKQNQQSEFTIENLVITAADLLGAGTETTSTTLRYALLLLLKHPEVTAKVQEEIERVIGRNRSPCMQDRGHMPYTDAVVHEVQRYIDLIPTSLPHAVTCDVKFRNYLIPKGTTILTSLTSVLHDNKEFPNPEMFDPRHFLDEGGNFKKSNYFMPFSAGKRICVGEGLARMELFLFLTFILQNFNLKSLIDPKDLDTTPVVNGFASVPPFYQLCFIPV
# Outline: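 Relative luminescence units recorded 20 min after the detection reagent stopped a 1 h, 37C CYP2C19 reaction on proluciferin substrate, which was started by NADPH regeneration following 10 min room-temperature compound preincubation; ketoconazole positive control.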
# [3] = biological target: Cytochrome P450 2C9 (Homo sapiens) (UniProt P11712); test: Cytochrome P450 Family 2 Subfamily C Member 9 (CYP2C9) small molecule antagonists: luciferase reporter qHTS assay (AID 1671198); further: nearly all actives have a fitted effect of over 50% in size; further: potency means the concentration at half of the fitted maximal effect; on activity change, negative = inhibition: series mostly up to about 120 µM; on the % scale 0 is the no-effect control and ±100 the full control effect
# Chain of UniProt P11712 (P11712 whole entry, looked up): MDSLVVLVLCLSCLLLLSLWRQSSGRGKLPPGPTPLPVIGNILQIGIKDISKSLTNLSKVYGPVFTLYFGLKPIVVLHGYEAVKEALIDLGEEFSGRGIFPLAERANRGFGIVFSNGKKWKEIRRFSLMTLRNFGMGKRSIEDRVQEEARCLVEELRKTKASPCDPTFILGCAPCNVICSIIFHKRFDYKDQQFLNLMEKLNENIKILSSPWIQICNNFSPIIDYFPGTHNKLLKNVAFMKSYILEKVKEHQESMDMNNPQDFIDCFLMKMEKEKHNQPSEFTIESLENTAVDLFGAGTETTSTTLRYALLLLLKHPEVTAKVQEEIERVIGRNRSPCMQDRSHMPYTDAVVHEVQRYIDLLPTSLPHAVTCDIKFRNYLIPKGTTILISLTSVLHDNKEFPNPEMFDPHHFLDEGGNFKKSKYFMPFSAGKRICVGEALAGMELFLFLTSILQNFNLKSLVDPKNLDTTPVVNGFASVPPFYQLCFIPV
# Outline: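 P450-Glo proluciferin substrate with CYP2C9 enzyme; 10 min RT preincubation, then NADPH regeneration 1 h at 37C; luciferin detection reagent 20 min RT, luminescence in relative luminescence units.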
# [4] = biological target: Cytochrome P450 3A4 (Homo sapiens) (UniProt P08684); test: Cytochrome P450 Family 3 Subfamily A Member 4 (CYP3A4) small molecule antagonists: luciferase reporter qHTS assay (AID 1671201); further: nearly all actives have a fitted effect of over 50% in size; further: potency means the concentration at half of the fitted maximal effect; on activity change, negative = inhibition: series mostly up to about 120 µM; on the % scale 0 is the no-effect control and ±100 the full control effect
# Chain of UniProt P08684 (P08684 whole entry, looked up): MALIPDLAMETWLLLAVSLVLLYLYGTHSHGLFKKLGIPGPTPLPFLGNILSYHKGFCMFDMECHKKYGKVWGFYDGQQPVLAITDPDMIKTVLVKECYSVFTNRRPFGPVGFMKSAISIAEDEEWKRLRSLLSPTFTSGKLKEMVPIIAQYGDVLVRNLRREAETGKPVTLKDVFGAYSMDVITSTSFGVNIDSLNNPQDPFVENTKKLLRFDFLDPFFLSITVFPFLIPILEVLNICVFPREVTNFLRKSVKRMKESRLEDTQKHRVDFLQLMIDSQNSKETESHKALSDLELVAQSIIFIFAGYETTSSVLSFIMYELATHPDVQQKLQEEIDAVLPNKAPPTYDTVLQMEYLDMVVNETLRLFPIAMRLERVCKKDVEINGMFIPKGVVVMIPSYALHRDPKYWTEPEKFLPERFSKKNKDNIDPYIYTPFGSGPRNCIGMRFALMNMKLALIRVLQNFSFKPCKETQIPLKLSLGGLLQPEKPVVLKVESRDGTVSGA
# Outline: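 Recombinant human CYP3A4 converts a proluciferin substrate to luciferin over 1 h at room temperature after NADPH regeneration solution is added (compound preincubated 10 min); detection reagent stops reaction, luminescence read 20 min later as relative units.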
# [5] = biological target: Cytochrome P450 2D6 (Homo sapiens) (UniProt P10635); test: Cytochrome P450 Family 2 Subfamily D Member 6 (CYP2D6) small molecule antagonists: luciferase reporter qHTS assay (AID 1671196); further: nearly all actives have a fitted effect of over 50% in size; further: potency means the concentration at half of the fitted maximal effect; on activity change, negative = inhibition: series mostly up to about 120 µM; on the % scale 0 is the no-effect control and ±100 the full control effect
# Chain of UniProt P10635 (P10635 whole entry, looked up): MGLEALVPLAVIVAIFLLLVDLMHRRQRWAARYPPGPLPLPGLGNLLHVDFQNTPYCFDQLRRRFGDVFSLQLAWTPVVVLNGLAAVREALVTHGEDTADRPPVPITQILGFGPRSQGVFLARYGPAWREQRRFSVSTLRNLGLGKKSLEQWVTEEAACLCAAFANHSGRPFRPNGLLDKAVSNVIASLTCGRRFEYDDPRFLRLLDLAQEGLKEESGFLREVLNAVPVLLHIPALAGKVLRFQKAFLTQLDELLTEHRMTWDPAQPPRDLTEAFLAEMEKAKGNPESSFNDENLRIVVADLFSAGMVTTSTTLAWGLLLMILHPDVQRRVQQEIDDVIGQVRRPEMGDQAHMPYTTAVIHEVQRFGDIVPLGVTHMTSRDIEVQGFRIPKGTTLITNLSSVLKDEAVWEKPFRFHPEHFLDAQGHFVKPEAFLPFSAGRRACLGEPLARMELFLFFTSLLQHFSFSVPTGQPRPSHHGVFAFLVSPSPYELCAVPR
# Outline: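 P450-Glo format: CYP2D6 converts a proluciferin substrate to luciferin in an NADPH-driven reaction lasting 1 h at room temperature. Light output, proportional to CYP2D6 activity, reflects interference by test chemicals.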
# [6] = biological target: Nuclear receptor subfamily 1 group I member 2 (Rattus norvegicus) (UniProt Q9R1A7); test: Rat pregnane X receptor (rPXR) activation by small molecules, qHTS assay (AID 1346983); settings: rPXR luciferase reporter cells, One-Glo luminescence, 24 h; max activation: stronger effect = higher value; further: potency means the concentration at half of the fitted maximal effect; nearly all actives have a fitted effect of over 20% in size
# Chain of UniProt Q9R1A7 (Q9R1A7 whole entry, looked up): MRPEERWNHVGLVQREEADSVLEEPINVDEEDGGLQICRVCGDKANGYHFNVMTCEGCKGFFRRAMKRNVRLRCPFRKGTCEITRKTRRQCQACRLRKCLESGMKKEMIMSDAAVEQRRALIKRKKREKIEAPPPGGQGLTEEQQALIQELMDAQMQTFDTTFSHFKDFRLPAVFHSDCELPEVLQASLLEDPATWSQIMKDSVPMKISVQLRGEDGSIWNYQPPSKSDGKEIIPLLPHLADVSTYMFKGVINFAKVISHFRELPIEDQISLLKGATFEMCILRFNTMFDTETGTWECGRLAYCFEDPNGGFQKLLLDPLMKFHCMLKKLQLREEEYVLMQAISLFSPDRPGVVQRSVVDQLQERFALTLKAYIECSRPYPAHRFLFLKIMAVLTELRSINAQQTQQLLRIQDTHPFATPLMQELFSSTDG
# Outline: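 Cell-based rPXR activation assay: rPXR cells, 2,000 per well, rested 5hr at 37 C, then exposed to compounds in DMSO for 24 hr at 37 C. Luciferase activity read by One-Glo luminescence after 30 min at room temperature.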
# [7] = biological target: Nuclear receptor subfamily 1 group I member 2 (Homo sapiens) (UniProt O75469); test: CYP3A4 induction through human pregnane X receptor (PXR) by small molecules, qHTS assay (AID 1346984); further: potency means the concentration at half of the fitted maximal effect; nearly all actives have a fitted effect of over 40% in size
# Outline: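 Steps: seed DPX-2 cells, 5 hr at 37C; pin-transfer compounds; 24 hr at 37C; add Luciferin-IPA (3uM final), 3 hr at 37C; add One-Glo, 30 min RT; read luminescence.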
# [8] = Caspase-3/7 induction in CHO-K1 cells by small molecules, qHTS cell viability counter screen (AID 1346979); further: nearly all actives have a fitted effect of over 35% in size; further: potency means the concentration at half of the fitted maximal effect
# Outline: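 Cytotoxicity counter screen: CellTiter-Fluor added to compound-treated wild-type CHO-K1 cells at 16 h (37C, 5% CO2), fluorescence measured 1 h later; same wells as caspase-3/7 measurement.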
# [9] = Caspase-3/7 induction in HepG2 cells by small molecules, qHTS cell viability counter screen (AID 1346981); further: nearly all actives have a fitted effect of over 30% in size; further: potency means the concentration at half of the fitted maximal effect
# Outline: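 Steps: seed 2,000 HepG2 cells per well; incubate 5 hr at 37 C; pin-add compounds in DMSO; incubate 16 hr; add CellTiter-Fluor; after 1 hr at 37 C and 5% CO2, read fluorescence.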
# [10] = biological target: Cytochrome P450 1A2 (Homo sapiens) (UniProt P05177); test: Cytochrome P450 Family 1 Subfamily A Member 2 (CYP1A2) small molecule antagonists: luciferase reporter qHTS assay (AID 1671199); further: nearly all actives have a fitted effect of over 50% in size; further: potency means the concentration at half of the fitted maximal effect; on activity change, negative = inhibition: series mostly up to about 120 µM; on the % scale 0 is the no-effect control and ±100 the full control effect
# Chain of UniProt P05177 (P05177 whole entry, looked up): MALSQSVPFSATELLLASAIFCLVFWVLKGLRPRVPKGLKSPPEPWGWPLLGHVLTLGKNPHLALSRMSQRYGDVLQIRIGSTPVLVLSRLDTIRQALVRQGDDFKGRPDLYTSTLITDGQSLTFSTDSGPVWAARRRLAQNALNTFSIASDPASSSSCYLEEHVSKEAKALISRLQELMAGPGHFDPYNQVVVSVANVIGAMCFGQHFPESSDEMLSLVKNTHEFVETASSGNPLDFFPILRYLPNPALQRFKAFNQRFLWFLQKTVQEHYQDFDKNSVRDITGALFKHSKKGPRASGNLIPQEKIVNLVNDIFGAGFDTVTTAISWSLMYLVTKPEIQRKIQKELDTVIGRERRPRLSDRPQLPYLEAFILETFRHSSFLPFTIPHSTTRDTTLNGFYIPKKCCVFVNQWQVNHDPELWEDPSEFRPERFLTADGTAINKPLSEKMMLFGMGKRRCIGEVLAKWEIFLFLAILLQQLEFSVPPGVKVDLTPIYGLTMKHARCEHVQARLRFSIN
# Outline: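 Inhibition of CYP1A2 conversion of proluciferin to luciferin, detected by luminescence. Reaction run 1 h at room temperature with NADPH regeneration after brief compound preincubation.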
# [11] = biological target: Voltage-gated inwardly rectifying potassium channel KCNH2 (Homo sapiens) (UniProt Q12809); test: Human Ether-a-go-go-Related Gene (hERG) channel small molecule antagonists: fluorescence cell-based qHTS assay (AID 1671200)
# Chain of UniProt Q12809 (Q12809 whole entry, looked up): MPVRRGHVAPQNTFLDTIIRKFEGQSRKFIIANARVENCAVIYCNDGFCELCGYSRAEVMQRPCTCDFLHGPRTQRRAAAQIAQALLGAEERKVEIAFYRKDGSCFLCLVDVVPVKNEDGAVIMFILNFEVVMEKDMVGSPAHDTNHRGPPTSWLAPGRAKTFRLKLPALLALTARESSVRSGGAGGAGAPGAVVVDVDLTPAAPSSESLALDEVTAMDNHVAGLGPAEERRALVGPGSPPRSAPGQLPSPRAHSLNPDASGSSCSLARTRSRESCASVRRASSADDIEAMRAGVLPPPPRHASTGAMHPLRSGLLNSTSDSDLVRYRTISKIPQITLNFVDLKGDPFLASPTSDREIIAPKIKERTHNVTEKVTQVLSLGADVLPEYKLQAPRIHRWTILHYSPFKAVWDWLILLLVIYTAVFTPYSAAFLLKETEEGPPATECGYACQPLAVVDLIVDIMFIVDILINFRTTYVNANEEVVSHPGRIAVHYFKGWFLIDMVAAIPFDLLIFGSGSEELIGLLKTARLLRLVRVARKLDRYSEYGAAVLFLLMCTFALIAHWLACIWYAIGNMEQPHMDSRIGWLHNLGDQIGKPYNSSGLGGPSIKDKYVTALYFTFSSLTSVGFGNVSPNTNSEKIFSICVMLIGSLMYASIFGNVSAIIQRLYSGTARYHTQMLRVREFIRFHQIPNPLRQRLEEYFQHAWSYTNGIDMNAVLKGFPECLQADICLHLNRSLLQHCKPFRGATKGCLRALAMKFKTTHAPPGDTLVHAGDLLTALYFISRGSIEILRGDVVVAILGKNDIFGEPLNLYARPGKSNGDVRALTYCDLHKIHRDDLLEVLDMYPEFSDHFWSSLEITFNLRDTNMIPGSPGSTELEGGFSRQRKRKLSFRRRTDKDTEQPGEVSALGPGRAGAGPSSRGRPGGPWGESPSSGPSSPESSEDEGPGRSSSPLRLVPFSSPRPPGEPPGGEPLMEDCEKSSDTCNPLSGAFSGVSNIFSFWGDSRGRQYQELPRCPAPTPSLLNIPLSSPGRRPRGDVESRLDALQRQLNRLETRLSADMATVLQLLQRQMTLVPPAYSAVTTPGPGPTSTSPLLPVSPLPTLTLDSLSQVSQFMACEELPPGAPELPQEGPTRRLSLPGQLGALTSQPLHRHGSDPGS
# Outline: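 Thallium flux as potassium surrogate: FluxOR II dye loaded 1 h at room temperature into hERG-expressing U2OS cells, then stimulus buffer added after 10 min. Kinetic 480 nm excitation/540 nm emission read, 2 min.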
# [12] = biological target: Nuclear receptor subfamily 1 group I member 2 (Homo sapiens) (UniProt O75469); test: Human pregnane X receptor (PXR) small molecule agonists, qHTS assay (AID 1346982); further: potency means the concentration at half of the fitted maximal effect; nearly all actives have a fitted effect of over 35% in size
# Outline: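 Agonist mode qHTS: PXR-Luc HepG2 cells plated 5 hr before DMSO-dissolved compounds were pinned in, cultured 24 hr at 37 C, 5% CO2; ONE-Glo luminescence readout.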
# [13] = Caspase-3/7 induction in CHO-K1 cells by small molecules, qHTS assay (AID 1346980); further: on the % scale 0 is the no-effect control and ±100 the full control effect; nearly all actives have a fitted effect of over 15% in size
# Outline: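 Wild-type CHO-K1 cells exposed to compounds for 17hr at 37 C, 5% CO2. Caspase-3/7 activity then measured by Caspase-Glo 3/7 luminescence after 30min at room temperature.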
# Tags describe the fitted curve by direction and shape.
smiles,measurement,setting,value
CC1(C)CC(OC(=O)CCCCCCCCC(=O)OC2CC(C)(C)NC(C)(C)C2)CC(C)(C)N1,Potency,[1],inconclusive: 13.2 µM [cytotoxic]
same,Potency,[2],"inconclusive: 21.7 µM [inhibitor, single point]"
same,"activity change, negative = inhibition",[3],inactive: -10.9% [at 23.6 µM]
same,Potency,[4],"inconclusive: 4.34 µM [inhibitor, full curve]"
CCCCC(CC)COC(=O)COc1cc(Cl)c(Cl)cc1Cl (stereo not drawn),Potency,[1],inactive
same,Potency,[5],"inconclusive: 35.6 µM [inhibitor, partial curve]"
Cc1nc(Nc2ncc(C(=O)Nc3c(C)cccc3Cl)s2)cc(N2CCN(CCO)CC2)n1,Potency,[6],"inconclusive: 15.8 µM [activator, partial curve]"
CN1CCN(CCCN2c3ccccc3Sc3ccc(S(=O)(=O)N(C)C)cc32)CC1,Potency,[7],"inconclusive: 12.6 µM [activator, single point]"
CN1CCCC(CC2c3ccccc3Sc3ccccc32)C1 (stereo not drawn),Potency,[7],"inconclusive: 12.6 µM [activator, single point]"
C/C=C(/C(=C/C)c1ccc(O)cc1)c1ccc(O)cc1,Potency,[8],"inconclusive: 33.5 µM [cytotoxic, single point]"
same,Potency,[9],"inconclusive: 33.5 µM [cytotoxic, partial curve, poor fit]"
same,Potency,[2],"inconclusive: 17.4 µM [inhibitor, single point]"
same,Potency,[3],active: 17.4 µM
CCc1ccc(C(c2ccc(CC)cc2)C(Cl)Cl)cc1,Potency,[8],"inconclusive: 78.2 µM [cytotoxic, single point]"
same,Potency,[9],"inconclusive: 21.7 µM [rising, partial curve, poor fit]"
same,Potency,[10],"inconclusive: 31.7 µM [inhibitor, partial curve]"
same,Potency,[11],"inconclusive: 49.8 µM [inhibitor, partial curve]"
CC(=O)OCCOCCOCCOC(C)=O,Potency,[8],"inconclusive: 15.4 µM [cytotoxic, single point]"
same,Potency,[9],inactive
same,Potency,[12],"inconclusive: 67.7 µM [activator, single point]"
same,Potency,[5],inactive
same,Potency,[10],"inconclusive: 70.1 µM [inhibitor, partial curve, poor fit] and inactive"
COC(=O)CCCC(=O)OC,Potency,[8],active: 54 µM and inactive
same,Potency,[9],inactive
same,Potency,[12],"inconclusive: 68 µM [activator, single point]"
same,Potency,[2],"inconclusive: 79 µM [inhibitor, single point]"
same,Potency,[3],"inconclusive: 71 µM [inhibitor, single point]"
CC(=O)Oc1ccc(C(=C2CCCCC2)c2ccc(OC(C)=O)cc2)cc1,Potency,[8],"inconclusive: 26.6 µM [cytotoxic, partial curve]"
same,Potency,[12],"inconclusive: 33.5 µM [activator, single point]"
CNC(=S)NN,Potency,[8],active: 19.3 µM
same,Potency,[13],inactive
same,Potency,[12],"inconclusive: 12.2 µM [activator, single point]"
same,Potency,[5],"inconclusive: 71 µM [inhibitor, partial curve]"
same,Potency,[2],"inconclusive: 89.4 µM [inhibitor, single point]"
O=C(CCN1CCC(c2ccccc2)C1)c1ccc2c(c1)OCCO2 (stereo not drawn),Potency,[8],active: 26.6 µM
same,Potency,[12],active: 13.3 µM
same,Potency,[2],"inconclusive: 38.9 µM [inhibitor, single point]"
same,Potency,[3],"inconclusive: 30.9 µM [inhibitor, partial curve, poor fit]"
same,Potency,[10],"inconclusive: 27.5 µM [inhibitor, partial curve]"
same,Potency,[11],"inconclusive: 19 µM [inhibitor, partial curve]"
CCCCC(CC)COC(=O)c1ccccc1C(=O)O (stereo not drawn),Potency,[8],"inconclusive: 49.4 µM [rising, partial curve, poor fit]"
same,Potency,[9],"inconclusive: 24.8 µM [rising, partial curve]"
same,Potency,[5],"inconclusive: 66.3 µM [inhibitor, partial curve]"
same,Potency,[3],active: 5.91 µM
same,Potency,[4],inactive
CCCCCCC(O)CCCCCCCCCCC(=O)O (stereo not drawn),Potency,[8],"inconclusive: 77.2 µM [cytotoxic, single point]"
same,Potency,[12],"inconclusive: 68.8 µM [activator, single point]"
same,Potency,[2],"inconclusive: 89.6 µM [inhibitor, single point]"
CCN(Cc1cccc(S(=O)(=O)O)c1)c1ccc(C(=C2C=CC(=[N+](CC)Cc3cccc(S(=O)(=O)O)c3)C=C2)c2ccc(O)cc2S(=O)(=O)[O-])cc1,Potency,[8],active: 18.6 µM
same,Potency,[9],active: 16.6 µM
same,Potency,[12],"inconclusive: 0.148 µM [activator, single point]"
same,Potency,[3],active: 6.83 µM
same,Potency,[10],active: 17.2 µM
